Laboratory results published in publication PMC3608554.
No constants are given. Whether binding was seen depends on the method and setting. Binding seen in cells or lysates may run through a third protein. Some results given as binding are weak or reduced against the parent protein; the word gives no strength.

What was measured:
[1] = biological target: T1, BANK1, endogenous in human B-cell lines (human (endogenous in Daudi)) (UniProt Q8NDB2); assay: co-IP; endogenous proteins, Daudi cells stimulated with 10 ug/mL goat F(ab')2 anti-human IgM; 1% NP-40 lysate; IP anti-PLCg2 and blot anti-BANK1, or reverse IP anti-BANK1 and blot anti-PLCg2; also in shControl and BLK-silenced (shBLK) Daudi cells, where the association was reduced
T1 sequence: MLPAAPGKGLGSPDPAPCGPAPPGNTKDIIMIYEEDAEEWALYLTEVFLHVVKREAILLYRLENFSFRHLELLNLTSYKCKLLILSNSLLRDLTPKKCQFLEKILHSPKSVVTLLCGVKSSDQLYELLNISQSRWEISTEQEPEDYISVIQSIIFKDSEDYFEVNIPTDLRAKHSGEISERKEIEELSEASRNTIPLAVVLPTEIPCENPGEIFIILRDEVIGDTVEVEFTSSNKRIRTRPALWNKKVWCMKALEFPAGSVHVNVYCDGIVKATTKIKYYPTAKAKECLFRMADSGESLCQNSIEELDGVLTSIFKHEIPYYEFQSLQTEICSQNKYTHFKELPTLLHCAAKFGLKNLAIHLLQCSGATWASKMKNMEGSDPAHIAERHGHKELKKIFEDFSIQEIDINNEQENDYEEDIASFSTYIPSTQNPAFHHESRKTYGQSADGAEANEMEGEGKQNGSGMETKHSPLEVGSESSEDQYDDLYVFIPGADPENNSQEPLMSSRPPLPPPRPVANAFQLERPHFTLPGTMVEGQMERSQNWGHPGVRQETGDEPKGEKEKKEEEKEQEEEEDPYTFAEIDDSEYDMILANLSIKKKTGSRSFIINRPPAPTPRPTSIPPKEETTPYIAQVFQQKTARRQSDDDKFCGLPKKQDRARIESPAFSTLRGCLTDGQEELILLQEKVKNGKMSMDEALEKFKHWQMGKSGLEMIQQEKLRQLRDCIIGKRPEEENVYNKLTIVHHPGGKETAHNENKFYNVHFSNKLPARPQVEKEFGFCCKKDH

[2] = biological target: T1, BANK1, endogenous in human B-cell lines (human (endogenous in Daudi)); assay: co-IP; endogenous proteins, resting (non-stimulated) Daudi cells; IP anti-PLCg2 and blot anti-BANK1, or reverse IP anti-BANK1 and blot anti-PLCg2

binding [1]: binds
B1: PLCg2, endogenous in human B-cell lines (enzyme, UniProt P16885 1-1265)
chain: MSTTVNVDSLAEYEKSQIKRALELGTVMTVFSFRKSTPERRTVQVIMETRQVAWSKTADKIEGFLDIMEIKEIRPGKNSKDFERAKAVRQKEDCCFTILYGTQFVLSTLSLAADSKEDAVNWLSGLKILHQEAMNASTPTIIESWLRKQIYSVDQTRRNSISLRELKTILPLINFKVSSAKFLKDKFVEIGAHKDELSFEQFHLFYKKLMFEQQKSILDEFKKDSSVFILGNTDRPDASAVYLHDFQRFLIHEQQEHWAQDLNKVRERMTKFIDDTMRETAEPFLFVDEFLTYLFSRENSIWDEKYDAVDMQDMNNPLSHYWISSSHNTYLTGDQLRSESSPEAYIRCLRMGCRCIELDCWDGPDGKPVIYHGWTRTTKIKFDDVVQAIKDHAFVTSSFPVILSIEEHCSVEQQRHMAKAFKEVFGDLLLTKPTEASADQLPSPSQLREKIIIKHKKLGPRGDVDVNMEDKKDEHKQQGELYMWDSIDQKWTRHYCAIADAKLSFSDDIEQTMEEEVPQDIPPTELHFGEKWFHKKVEKRTSAEKLLQEYCMETGGKDGTFLVRESETFPNDYTLSFWRSGRVQHCRIRSTMEGGTLKYYLTDNLTFSSIYALIQHYRETHLRCAEFELRLTDPVPNPNPHESKPWYYDSLSRGEAEDMLMRIPRDGAFLIRKREGSDSYAITFRARGKVKHCRINRDGRHFVLGTSAYFESLVELVSYYEKHSLYRKMRLRYPVTPELLERYNMERDINSLYDVSRMYVDPSEINPSMPQRTVKALYDYKAKRSDELSFCRGALIHNVSKEPGGWWKGDYGTRIQQYFPSNYVEDISTADFEELEKQIIEDNPLGSLCRGILDLNTYNVVKAPQGKNQKSFVFILEPKQQGDPPVEFATDRVEELFEWFQSIREITWKIDTKENNMKYWEKNQSIAIELSDLVVYCKPTSKTKDNLENPDFREIRSFVETKADSIIRQKPVDLLKYNQKGLTRVYPKGQRVDSSNYDPFRLWLCGSQMVALNFQTADKYMQMNHALFSLNGRTGYVLQPESMRTEKYDPMPPESQRKILMTLTVKVLGARHLPKLGRSIACPFVEVEICGAEYDNNKFKTTVVNDNGLSPIWAPTQEKVTFEIYDPNLAFLRFVVYEEDMFSDPNFLAHATYPIKAVKSGFRSVPLKNGYSEDIELASLLVFCEMRPVLESEEELYSSCRQLRRRQEELNNQLFLYDTHQNLRNANRDALVKEFSVNENQLQLYQEKCNKRLREKRVSNSKFYS
binding [2]: no binding (condition: cells not stimulated with anti-IgM)
